Source: ChEMBL document CHEMBL4390690, “Nucleoside protein arginine methyltransferase 5 (PRMT5) inhibitors” (Bioorg Med Chem Lett, 2019)
pIC50: −log10 of the molar value.

What was measured:
[1] = target: T1, Protein arginine N-methyltransferase 5 (Homo sapiens, UniProt O14744); assay: Inhibition of PRMT5 in human A549 cells assessed as reduction in sDMA production after 48 hrs by Hoechst Stain/HCS CellMask Deep Red Stain based immunohistochemistry method; assay type: cell-based
[2] = test system: A549; assay: Antiproliferative activity against human A549 cells incubated for 7 days with compound replacement on day 4 by cell titer glo-based luminescence assay; assay type: functional
[3] = test system: Granta-519; assay: Antiproliferative activity against human GRANTA-519 cells incubated for 3 days and measured upto 10 days by CCK-8 assay; assay type: functional, cell-based
[4] = test system: Z-138; assay: Antiproliferative activity against human Z138 cells; assay type: functional, cell-based
[5] = target: T2, PRMT5/MEP50 complex (Homo sapiens, UniProt O14744); assay: Inhibition of full-length human N-terminal FLAG-tagged PRMT5/full length N-terminal His6-tagged MEP50 (unknown origin) expressed in baculovirus infected Sf9 insect cells assessed as reduction of S-adenosyl-L-homocysteine formation using human recombinant histone H2A (1 to 130 residues) as substrate after 1 hr in the presence of S-adenosyl-L-methionine by high throughput mass spectrometry
[6] = target: T2, PRMT5/MEP50 complex; assay: Inhibition of PRMT5 (unknown origin)/MEP50 (unknown origin) using [3H]-SAM and histone H2A incubated for 60 mins by scintillation counting analysis; assay type: protein-complex assay
[7] = target: T1, Protein arginine N-methyltransferase 5; assay: Inhibition of PRMT5 in human Granta-519 assessed as reduction in sDMA production after 3 days by Western blotting analysis; assay type: cell-based
[8] = target: T2, PRMT5/MEP50 complex; assay: Inhibition of PRMT5 (unknown origin)/MEP50 (unknown origin) using histone H2 as substrate preincubated for 15 to 20 mins followed by S-[methyl-3H]adenosyl-L-methionine addition measured after 60 mins by liquid scintillation counting; assay type: protein-complex assay
[9] = target: T1, Protein arginine N-methyltransferase 5; assay: Inhibition of PRMT5 (unknown origin)
[10] = test system: A549; assay: Antiproliferative activity against human A549 cells; assay type: functional, cell-based
[11] = target: T1, Protein arginine N-methyltransferase 5; assay: Inhibition of PRMT5 (unknown origin) assessed as reduction in SAH formation using histone H2A and SAM incubated for 60 mins by high throughput mass spectrometry
[12] = target: T1, Protein arginine N-methyltransferase 5; assay: Inhibition of PRMT5 in human A549 cells assessed as reduction in sDMA production incubated for 48 hrs by immunohistochemistry analysis; assay type: cell-based
[13] = test system: A-375; assay: Antiproliferative activity against human A375 cells measured after 7 days by cell titer glo-based luminescence assay; assay type: functional; details: A-375, 168 h

Q: How did the pIC50 [1] turn out when `Cc1cnc2cc(CC[C@H]3C[C@@H](n4ccc5c(N)ncnc54)[C@H](O)[C@@H]3O)ccn12` was run?
A: 8.90

Q: With `Nc1ncnc2c1ccn2[C@@H]1C[C@H](OCc2ccc3cccnc3c2)[C@@H](O)[C@H]1O` as the compound, how does the pIC50 [1] read?
A: 5.97

Q: `Nc1ncnc2c1ccn2[C@@H]1O[C@H]([C@H](O)c2ccc(F)c(F)c2)[C@@H](O)[C@H]1O` was tested. Which pIC50 [2] did it give?
A: 8.22

Q: How did the pIC50 [3] turn out when `N/N=c1\nc[nH]c2c1ccn2[C@@H]1O[C@H]([C@H](O)c2ccc(Cl)cc2)[C@@H](O)[C@H]1O` was run?
A: 7.01

Q: `Nc1ncnc2c1ccn2[C@@H]1O[C@H]([C@H](O)c2ccc(Cl)c(F)c2)[C@@H](O)[C@H]1O` was tested. Which pIC50 [4] did it give?
A: 8.85

Q: How did the pIC50 [1] turn out when `Cc1nc2cc(CC[C@H]3C[C@@H](n4ccc5c(N)ncnc54)[C@H](O)[C@@H]3O)ccn2c1C` was run?
A: 8.40

Q: And the pIC50 [5]?
A: > 9.70

Q: With `Cc1ncnc2c1ccn2[C@@H]1O[C@H]([C@H](O)c2ccc(F)c(F)c2)[C@@H](O)[C@H]1O` as the compound, how does the pIC50 [2] read?
A: 7.80

Q: With `C=CC(=O)Nc1ncnc2c1ncn2[C@@H]1O[C@H](CSC)[C@@H](O)[C@H]1O` as the compound, how does the pIC50 [6] read?
A: 5.30

Q: How did the pIC50 [7] turn out when `Nc1ncnc2c1ccn2[C@@H]1C[C@H](Sc2ccc(Cl)cc2)[C@@H](O)[C@H]1O` was run?
A: 7.20

Q: What about the pIC50 [8] of the same compound?
A: 7.59

Q: With `Cc1ncnc2c1ccn2[C@@H]1C[C@H](Oc2cc(C(F)F)c(F)c3c2CNCC3C)[C@@H](O)[C@H]1O` (stereo in doubt; 38) as the compound, how does the pIC50 [9] read?
A: 9.00

Q: And the pIC50 ([10]; a549)?
A: 7.85

Q: With `Nc1ncnc2c1c(F)cn2[C@@H]1O[C@H]([C@H](O)c2ccc(F)c(F)c2)[C@@H](O)[C@H]1O` as the compound, how does the pIC50 [2] read?
A: 8.00

Q: With `Cc1ncnc2c1ccn2[C@@H]1C[C@H](Oc2cc(C(F)F)cc3c2CNCC3)[C@@H](O)[C@H]1O` as the compound, how does the pIC50 ([10]; Homo sapiens, A549) read?
A: 8.70

Q: With `Cc1ncnc2c1ccn2[C@@H]1C[C@H](Oc2cc(C(F)F)c(F)c3c2CNCC3C)[C@@H](O)[C@H]1O` (stereo in doubt; 39) as the compound, how does the pIC50 ([10]; a549) read?
A: 8.70

Q: With `C=C(C)C(=O)Nc1ncnc2c1ncn2[C@@H]1O[C@H](CSC)[C@@H](O)[C@H]1O` as the compound, how does the pIC50 [6] read?
A: 5.62

Q: What does the source list for `Nc1ncnc2c1ccn2[C@@H]1C[C@H](CCc2ccc3ccc(NCC4CC4)nc3c2)[C@@H](O)[C@H]1O`?
A: pIC50 [1]: 9.40; pIC50 [5]: 9.10

Q: With `Nc1ncnc2c1ccn2[C@@H]1C[C@H](COc2ccc3cccnc3c2)[C@@H](O)[C@H]1O` as the compound, how does the pIC50 [1] read?
A: 6.90

Q: What about the pIC50 [5] of the same compound?
A: 7.70

Q: How did the pIC50 [1] turn out when `Nc1ncnc2c1ccn2[C@@H]1C[C@H](/C=C/c2ccc3cccnc3c2)[C@@H](O)[C@H]1O` was run?
A: 7.29

Q: With `Nc1ncnc2c1ccn2[C@@H]1O[C@H](CN2CC(F)(F)CC23CCNCC3)[C@@H](O)[C@H]1O` as the compound, how does the pIC50 [11] read?
A: 8.06

Q: And the pIC50 [12]?
A: 7.29

Q: How did the pIC50 [1] turn out when `Cc1cnc2cc(CC[C@H]3C[C@@H](n4ccc5c(N)ncnc54)[C@H](O)[C@@H]3O)c(F)cn12` was run?
A: 8.70

Q: What about the pIC50 [5] of the same compound?
A: 9.49

Q: How did the pIC50 [1] turn out when `Nc1ccc2ccc(CC[C@H]3C[C@@H](n4ccc5c(N)ncnc54)[C@H](O)[C@@H]3O)cc2n1` was run?
A: 9.80

Q: And the pIC50 [5]?
A: 9.60

Q: With `Nc1ncnc2c1ncn2[C@@H]1O[C@H]([C@H](O)c2ccc(F)c(F)c2)[C@@H](O)[C@H]1O` as the compound, how does the pIC50 [2] read?
A: 7.32

Q: With `C#Cc1cn([C@@H]2O[C@H]([C@H](O)c3ccc(Cl)cc3)[C@@H](O)[C@H]2O)c2ncnc(N)c12` as the compound, how does the pIC50 [8] read?
A: 7.77

Q: What about the pIC50 [3] of the same compound?
A: 6.88

Q: How did the pIC50 [13] turn out when `Nc1ncnc2c1ccn2[C@@H]1O[C@H]([C@H](O)c2ccc(Cl)cc2)[C@@H](O)[C@H]1O` was run?
A: 7.96

Q: And the pIC50 [2]?
A: 8.30

Q: With `Cc1ncnc2c1ccn2[C@@H]1O[C@H]([C@H](O)c2cccc3c2CNCC3)[C@@H](O)[C@H]1O` as the compound, how does the pIC50 ([10]; Homo sapiens, A549) read?
A: 6.46

Q: `Nc1ncnc2c1ccn2[C@@H]1C[C@H]([C@H](O)c2ccc(F)c(F)c2)[C@@H](O)[C@H]1O` was tested. Which pIC50 [7] did it give?
A: 6.87

Q: What about the pIC50 [8] of the same compound?
A: 8.70

Q: How did the pIC50 [1] turn out when `Nc1ccc(CC[C@H]2C[C@@H](n3ccc4c(N)ncnc43)[C@H](O)[C@@H]2O)cn1` was run?
A: 8.20

Q: What does the source list for `Nc1ncnc2c1ccn2[C@@H]1O[C@H](CN2CCCC23CCNCC3)[C@@H](O)[C@H]1O`?
A: pIC50 [11]: 7.66; pIC50 [12]: 7.09

Q: What does the source list for `Cc1ncnc2c1ccn2[C@@H]1C[C@H](Oc2cc(OC(F)F)c(F)c3c2CNCC3)[C@@H](O)[C@H]1O`?
A: pIC50 [9]: 9.00; pIC50 ([10]; Homo sapiens, A549): 6.85

Q: How did the pIC50 [13] turn out when `Nc1ncnc2c1ccn2[C@@H]1O[C@H]([C@H](O)c2ccccc2)[C@@H](O)[C@H]1O` was run?
A: 7.49

Q: How did the pIC50 [1] turn out when `Nc1ncnc2c1ccn2[C@@H]1C[C@H](CCc2ccc3cccnc3c2)[C@@H](O)[C@H]1O` was run?
A: 8.10

Q: With `C#Cc1nn([C@@H]2O[C@H]([C@H](O)c3ccc(Cl)cc3)[C@@H](O)[C@H]2O)c2ncnc(N)c12` as the compound, how does the pIC50 [8] read?
A: 6.94

Q: `Cc1cnc2cc(CC[C@H]3C[C@@H](n4ccc5c(N)ncnc54)[C@H](O)[C@@H]3O)c(Cl)cn12` was tested. Which pIC50 [1] did it give?
A: 8.20

Q: How did the pIC50 [1] turn out when `Nc1ncnc2c1ccn2[C@@H]1O[C@H](COc2ccc3cccnc3c2)[C@@H](O)[C@H]1O` was run?
A: 7.10

Q: What about the pIC50 [5] of the same compound?
A: 7.80
